Source: paper PMC4336329 (PLoS ONE, 2015)
Screen size: about 310,000 compounds; about 2,200 (0.71%) showed an effect of 50% or more. The effect is printed as a negative number. This is one part of the list.

Biological target: human ether-à-go-go-related gene (hERG) potassium channel (human, UniProt Q12809)
Assay: primary screen, population patch clamp on CHO cells stably expressing hERG

Sequence of human ether-à-go-go-related gene (hERG) potassium channel (Q12809 whole entry, looked up): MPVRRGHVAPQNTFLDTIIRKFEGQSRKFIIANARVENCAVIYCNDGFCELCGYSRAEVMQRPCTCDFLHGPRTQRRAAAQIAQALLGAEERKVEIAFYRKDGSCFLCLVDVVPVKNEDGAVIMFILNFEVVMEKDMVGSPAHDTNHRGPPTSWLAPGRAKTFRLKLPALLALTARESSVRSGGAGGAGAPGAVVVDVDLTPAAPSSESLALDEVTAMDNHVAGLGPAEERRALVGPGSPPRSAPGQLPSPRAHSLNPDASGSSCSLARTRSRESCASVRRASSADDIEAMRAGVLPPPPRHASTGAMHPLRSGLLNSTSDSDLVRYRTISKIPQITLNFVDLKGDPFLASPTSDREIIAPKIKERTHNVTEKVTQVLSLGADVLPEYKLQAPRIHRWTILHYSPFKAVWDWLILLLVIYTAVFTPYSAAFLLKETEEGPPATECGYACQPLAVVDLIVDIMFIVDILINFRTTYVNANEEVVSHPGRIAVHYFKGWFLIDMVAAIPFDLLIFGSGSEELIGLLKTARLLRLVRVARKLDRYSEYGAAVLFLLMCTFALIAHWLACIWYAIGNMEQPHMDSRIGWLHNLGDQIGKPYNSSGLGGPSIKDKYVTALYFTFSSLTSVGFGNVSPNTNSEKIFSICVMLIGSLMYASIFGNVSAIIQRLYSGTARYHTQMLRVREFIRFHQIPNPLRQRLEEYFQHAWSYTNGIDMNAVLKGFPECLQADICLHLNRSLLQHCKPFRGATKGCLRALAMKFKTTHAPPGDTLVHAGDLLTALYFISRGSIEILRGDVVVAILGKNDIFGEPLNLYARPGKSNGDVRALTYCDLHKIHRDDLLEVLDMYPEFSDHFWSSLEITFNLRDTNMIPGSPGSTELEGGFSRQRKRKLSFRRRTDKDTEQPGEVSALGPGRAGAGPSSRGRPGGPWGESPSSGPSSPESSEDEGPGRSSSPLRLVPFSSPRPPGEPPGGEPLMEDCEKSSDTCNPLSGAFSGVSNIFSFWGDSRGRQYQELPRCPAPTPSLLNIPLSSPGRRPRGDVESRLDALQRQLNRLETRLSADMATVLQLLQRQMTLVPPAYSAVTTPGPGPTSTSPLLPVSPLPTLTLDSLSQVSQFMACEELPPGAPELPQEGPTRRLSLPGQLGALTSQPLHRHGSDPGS

Row | Compound | hERG current change (%, negative = inhibition) at 1uM [%]
1 | Cc1ccc(C(=O)N(c2ccccn2)C(C)c2ccco2)cc1 (stereo not drawn) | 4.44
2 | COc1ccccc1Nc1nc(N)nc(CSc2nncn2C)n1 | 11.2
3 | CCC(OCC(O)CN1CCN(CCN2C(=O)c3cccc4cccc(c34)C2=O)CC1)c1ccccc1.Cl (stereo not drawn) | -12
4 | Cc1ccc(C(c2sc3nc(C)nn3c2O)N2CCN(C(=O)c3ccco3)CC2)cc1 (stereo not drawn) | -2.74
5 | COc1ccc(-c2nc3ccccc3c(=O)n2N)cc1 | -14.3
6 | O=C(N/N=C\c1ccc(-c2ccc([N+](=O)[O-])cc2)o1)c1ccc2c(c1)OCO2 | 7.6
7 | CC(NCCc1ccc(S(N)(=O)=O)cc1)C(=O)NCCc1ccc(F)cc1.O=C(O)C(=O)O (stereo not drawn) | 2.89
8 | Cc1ccc(NS(=O)(=O)c2cn(C)c(=O)n(C)c2=O)cc1C | 9.08
9 | CCCCN(C(=O)CCCSc1nc2ccccc2[nH]1)c1c(N)n(Cc2ccccc2)c(=O)[nH]c1=O | -13.3
10 | Cn1c(N)c(C(=O)COC(=O)c2ccnc3ccccc23)c(=O)n(C)c1=O | 11.1
11 | NS(=O)(=O)c1ccc(NC(=O)COc2ncnc3sccc23)cc1 | 14.6
12 | CCC1CCCCN1S(=O)(=O)c1ccc(-n2cnnn2)c(C)c1 (stereo not drawn) | 16.8
13 | Cc1nn(Cc2noc(C(=O)NC3CCC(C)CC3)n2)c(C)c1Br (stereo not drawn) | 21
14 | O=C(NCc1ccncc1)c1ccc(N2CCCC2)c([N+](=O)[O-])c1 | 2.33
15 | Cc1ccc(NC(=O)/C(=C\c2ccc([N+](=O)[O-])cc2)NC(=O)c2ccccc2)cc1 | 2.45
16 | CCC(C)[C@H]1CNCCN1CC1(c2ccccc2)CC1 (stereo partly drawn) | 6.47
17 | Cc1noc(C)c1CSCC(=O)Nc1nc2ccc(Oc3ccccc3)cc2s1 | -3.98
18 | CN(C)c1cc[n+](/C(C(=S)Nc2ccc(SC(F)F)cc2)=C(/[O-])c2ccccc2)cc1 | 7.6
19 | CCCC1(C(=O)OCC)NC(c2ccc(O)cc2)C2C(=O)N(c3ccc4c(c3)OCCO4)C(=O)C21 (stereo not drawn) | 7.55
20 | CC(OC(=O)c1ccc2ccccc2n1)C(=O)c1ccccc1 (stereo not drawn) | 0.749
21 | COc1ccc(C2=NOC(C(=O)N3CCCCCC3)C2)cc1OC (stereo not drawn) | 2.22
22 | Cc1cc(C)c(NC(=O)c2cnn(C)c2)c(C)c1 | -0.429

Row | Compound | hERG current change (%, negative = inhibition) at 1uM [%]
23 | Cn1c(=O)c2sccc2n2c(CCCC(=O)Nc3ccc(F)cc3F)nnc12 | 19.1
24 | O=C(CCSc1ccc(F)cc1)NNC(=O)c1ccccc1Cl | 9.92
25 | COc1ccccc1/C=N\Nc1cc(C)nc(-n2nc(C)cc2C)n1 | 8.23
26 | Cl.O=C(CN1CCOCC1)NC1C2CC3CC(C2)CC1C3 (stereo not drawn) | 0.888
27 | Cc1cc(C)cc(NC(=O)CN2CCc3cc4c(cc3C2C)OCCCO4)c1 (stereo not drawn) | 7.79
28 | O=C(CC1S/C(=N/N=C2CCCCCC2)NC1=O)Nc1ccc(Br)cc1F (stereo not drawn) | 3.64
29 | COc1cccc(C=Nc2ccccc2C(=O)Nc2nccs2)c1OC | 9.17
30 | CCCNC(=O)c1oc2ccc3c(c2c1C)C(O)CC(C)(C)O3 (stereo not drawn) | 5.69
31 | Cc1cccc(NC(=O)c2ccc(COc3ccc(Cl)cc3Cl)o2)n1 | 14.6
32 | O=C(NC1CCCCC1)C1CCCN(S(=O)(=O)c2cccs2)C1 (stereo not drawn) | 16.9
33 | CN1C(=O)[C@@H]2[C@@H]3C[C@@H]([C@H]4ON=C(c5ccc(Cl)cc5Cl)[C@@H]34)[C@@H]2C1=O | -4.33
34 | O=C(N1CCCCC1)C1(S(=O)(=O)c2ccccc2)CC=CC1 | 10.4
35 | COc1cccc(CNC(=O)CCCN2C(=O)C(c3ccccc3)Oc3cccnc32)c1OC (stereo not drawn) | 6.7
36 | O=C(/C=C/c1ccc(Cl)cc1)Nn1c(-c2cccs2)nc2ccccc2c1=O | 18
37 | O=C(Nc1ccc(N2CCCCC2)c(C(=O)O)c1)c1ccco1 | 7.98
38 | COC(=O)c1ccc(N2C(=O)CC(N3CCN(C(=O)c4ccco4)CC3)C2=O)cc1 (stereo not drawn) | -8.41
39 | COc1ccc(OC)c(N(C(=O)c2snc(C(N)=O)c2N)C(C(=O)NCC2CCCO2)c2ccc3ncccc3c2)c1 (stereo not drawn) | 11.5
40 | O=C(Cn1c(=O)oc2cccnc21)Nc1ccc(C(F)(F)F)cc1 | 11.2
41 | Cc1ccc2nc(N/C(=N/S(=O)(=O)c3ccc(F)cc3)c3ccccc3)sc2c1 | 26.8
42 | Cc1cc(C(=O)OCC(=O)c2cccc([N+](=O)[O-])c2)c2ccccc2n1 | 11.5
43 | C=CCn1c(C2CC(=O)N(c3ccc(C)cc3)C2)nc2ccccc21 (stereo not drawn) | -5.61
44 | Cc1ccc(OCC(=O)O/N=C(\N)c2cccc([N+](=O)[O-])c2)cc1C | 10.6

Row | Compound | hERG current change (%, negative = inhibition) at 1uM [%]
45 | CCCC12CN3CC(CCC)(CN(C1)C3c1ccco1)C2=O (stereo not drawn) | 8.47
46 | O=C(CCCCCN1C(=O)[C@@H]2Cc3ccccc3CN2C1=O)Nc1ccccc1F | 10.4
47 | COCc1[nH]c(=S)c(C#N)cc1C(=O)OC | 12.9
48 | O=C(CSc1nnc2c(n1)[nH]c1ccc(F)cc12)N1CCOCC1 | 16.9
49 | CC(C)(O)C#Cc1ccc(CN2CCC(CO)(CCc3ccccc3)CC2)cc1 | -1.63
50 | COc1ccc(C2Nc3ccccc3C(=O)N2NS(=O)(=O)c2ccccc2)c(OC)c1 (stereo not drawn) | 4.72
51 | CN(C(=O)c1ccco1)c1nc(CC(=O)Nc2ccccc2)cs1 | -7.22
52 | COc1cccc(NS(=O)(=O)c2ccc3c(c2)n(C)c(=O)c(=O)n3C)c1 | 4.37
53 | O=C(CSc1ccccn1)c1ccc2c(c1)OCO2 | 15.7
54 | COC(=O)N/N=C/c1cc(C)n(-c2cccc3ccccc23)c1C | 5.93
55 | Cl.O=C(CCN1CCc2ccccc2C1)Nc1ccc(F)c(F)c1 | 10.6
56 | CN(CCO)CC(O)CN(c1ccccc1)c1ccccc1.Cl (stereo not drawn) | -11.9
57 | CCOC(=O)c1ccc(Nc2c(OCC)c(=O)c2=O)cc1 | 4.61
58 | N/C(=N\OC(=O)COc1ccc(Cl)cc1Cl)c1ccccn1 | 7.37
59 | Cc1ccc(S(=O)(=O)Nc2cccc(C(=O)NCC(C)(C)N3CCOCC3)c2)cc1F | -13.3
60 | COc1ccc(S(=O)(=O)N2CCN(C(=O)c3cccnc3)CC2)cc1OC | 9.73
61 | Cc1ccc(S(=O)(=O)NCc2cccnc2)cc1C | 13.7
62 | O=C(Nc1cccc(S(=O)(=O)N2CCCCC2)c1)c1cccs1 | 2.75
63 | CCN(CCCn1c(=S)[nH]c2ncccc2c1=O)c1ccccc1 | 10.5
64 | COc1ccc(-c2cc(C#N)nc(Cl)n2)cc1 | 13.2
65 | CN1CCN(CCCNC(=O)c2nnc(Cc3c(F)cccc3Cl)o2)CC1 | 1.2
66 | Cc1cc(=S)[nH]c2c(C)cccc12 | 15.9

Row | Compound | hERG current change (%, negative = inhibition) at 1uM [%]
67 | CCN(CC)S(=O)(=O)N1CCC(C(=O)NCc2ccc3c(c2)OCO3)CC1 | 1.07
68 | Cc1ccc(S(=O)(=O)c2c(C)cc(C)nc2N2CCOCC2)cc1 | 15.2
69 | O=C(CCCNC(=O)c1ccc(Cl)cc1)Nc1cccc(F)c1 | 14.1
70 | O=C(NCCc1cccnc1)C1CCC(=O)N(CCc2cccc(F)c2)C1 (stereo not drawn) | 2.95
71 | CCCN(CC(=O)Nc1ccc(Cl)cc1Cl)C(=O)/C=C/c1ccco1 | 8.31
72 | Cc1ccc(-n2c(C)nnc2SCC(=O)NC2CC2)cc1 | 8.23
73 | CC(C)(C)C(=O)/C=C(\N)c1ccccn1 | -1.33
74 | [Cl-].c1ccc(-c2c[nH]c3[n+]2CCCCC3)cc1 | 2.88
75 | O=C(Nc1ccc(Cl)c(S(=O)(=O)N2CCOCC2)c1)c1cc(=O)[nH]c2ccccc12 | 3.57
76 | CCc1cc2ccc(OC)cc2nc1SCC(=O)N1CCN(C(=O)c2ccco2)CC1 | 0.367
77 | Cc1ccc(NC(=O)CCN2C(=O)c3cccc4cccc(c34)C2=O)cc1 | 10.1
78 | CCN(CC)C(=O)Cn1cc(C(=O)C(=O)N2CCN(c3ccc([N+](=O)[O-])cc3)CC2)c2ccccc21 | -6.24
79 | Cc1ccc(C(=O)Nc2nnc(S(=O)(=O)Nc3ccccc3C)s2)cc1C | 14.5
80 | CCn1nccc1C(=O)Nc1cc(Cl)cc(Cl)c1 | -2.09
81 | NC(=O)C[n+]1cccc(C(N)=O)c1.[Cl-] | 12.2
82 | O=C(Nc1ccccc1)/C(=C/c1ccccc1)c1ccccc1 | 1.32
83 | CC(=O)c1cc2c(cc1NC(=O)CN1CCCCCC1)OCO2.O=C(O)C(=O)O | 7.79
84 | COc1ccc(CCNCc2cccn2C)cc1OC.Cl | 11.2
85 | O=C(CC12CC3CC(CC(C3)C1)C2)NCc1ccc(F)cc1 | 13.7
86 | CN(Cc1cccs1)C(=O)CSc1nc(N)cc(N)n1 | 18.6
87 | COCCn1c(-c2ccc(OC)c(OC)c2)nc2ccccc21 | 1.57
